Article PMC5341030
Results are given in words; binding and its absence hold for the method and conditions named. In cells and extracts the contact can be indirect. Some entries that bind do so weakly or less than the wild type. For some assays here: Where a sequence is shown, tags or fusion partners need not be part of it. Each block holds one molecule with its values, some of them ahead of it.

Chains of the proteins cited; added tags and fusions are not shown.
UniProt Q7G1L2: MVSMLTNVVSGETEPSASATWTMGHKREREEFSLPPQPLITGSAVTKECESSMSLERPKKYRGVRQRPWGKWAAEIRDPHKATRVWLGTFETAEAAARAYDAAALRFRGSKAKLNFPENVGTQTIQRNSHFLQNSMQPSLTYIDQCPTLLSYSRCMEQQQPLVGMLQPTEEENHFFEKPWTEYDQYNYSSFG
UniProt Q9C4Z6: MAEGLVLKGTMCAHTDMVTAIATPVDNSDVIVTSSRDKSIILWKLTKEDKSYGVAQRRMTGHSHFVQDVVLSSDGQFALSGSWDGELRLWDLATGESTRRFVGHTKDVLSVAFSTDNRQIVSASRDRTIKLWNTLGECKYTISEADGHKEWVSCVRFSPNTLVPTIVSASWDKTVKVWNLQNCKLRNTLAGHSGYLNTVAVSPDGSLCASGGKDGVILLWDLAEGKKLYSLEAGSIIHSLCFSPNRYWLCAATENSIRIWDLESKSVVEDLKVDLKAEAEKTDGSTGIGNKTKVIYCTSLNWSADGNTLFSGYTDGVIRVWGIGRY

Tests used:
[1] = target: HA-RAP2.6 (Arabidopsis) (UniProt Q7G1L2); assay: co-IP; Myc-RACK1B and HA-RAP2.6 co-expressed in Col-0 mesophyll protoplasts, with or without 50 uM ABA for 20 h; precipitation with anti-HA antibodies and protein G agarose, lysis buffer A (25 mM Tris-HCl, 200 mM NaCl pH 7.8, 2 mM DTT, 1% Triton X-100, 1 mM PMSF), 4 °C; immunoblot
[2] = target: GST-RACK1B (Arabidopsis) (UniProt Q9C4Z6); assay: pull-down; 100 uL crude extract of GST-RACK1B as bait on glutathione-Sepharose beads, equal volumes of crude extracts of His-HA-RAP2.6 or truncated RAP2.6 as prey, 1 h on ice; binding buffer 50 mM Tris-HCl pH 7.8, 200 mM NaCl, 1% Triton X-100, 10% glycerol; immunoblot with anti-HA; only the target purified
[3] = target: T1, GST-SCE1A (Arabidopsis) (UniProt Q42551); assay: pull-down; GST-SCE1A (or GST) as bait on glutathione-Sepharose beads, HA-RACK1B recombinant protein as prey (E. coli crude extract); binding buffer 50 mM Tris-HCl pH 7.8, 200 mM NaCl, 1% Triton X-100, 10% glycerol; 1 h on ice; immunoblot; only the target purified
T1 sequence: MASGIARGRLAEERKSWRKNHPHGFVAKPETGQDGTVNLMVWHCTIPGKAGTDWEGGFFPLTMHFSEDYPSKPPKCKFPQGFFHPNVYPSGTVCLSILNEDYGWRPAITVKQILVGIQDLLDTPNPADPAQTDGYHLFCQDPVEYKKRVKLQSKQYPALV

[4] = target: T2, GST-SIZ1 (Arabidopsis) (UniProt Q680Q4); assay: pull-down; 500 uL crude extract of GST-SIZ1 bound to 30 uL glutathione-Sepharose beads, washed, then 200 uL crude extract of His-HA-RACK1B, 1 h on ice; binding buffer 50 mM Tris-HCl pH 7.8, 200 mM NaCl, 1% Triton X-100, 10% glycerol; immunoblot; only the target purified
T2 sequence: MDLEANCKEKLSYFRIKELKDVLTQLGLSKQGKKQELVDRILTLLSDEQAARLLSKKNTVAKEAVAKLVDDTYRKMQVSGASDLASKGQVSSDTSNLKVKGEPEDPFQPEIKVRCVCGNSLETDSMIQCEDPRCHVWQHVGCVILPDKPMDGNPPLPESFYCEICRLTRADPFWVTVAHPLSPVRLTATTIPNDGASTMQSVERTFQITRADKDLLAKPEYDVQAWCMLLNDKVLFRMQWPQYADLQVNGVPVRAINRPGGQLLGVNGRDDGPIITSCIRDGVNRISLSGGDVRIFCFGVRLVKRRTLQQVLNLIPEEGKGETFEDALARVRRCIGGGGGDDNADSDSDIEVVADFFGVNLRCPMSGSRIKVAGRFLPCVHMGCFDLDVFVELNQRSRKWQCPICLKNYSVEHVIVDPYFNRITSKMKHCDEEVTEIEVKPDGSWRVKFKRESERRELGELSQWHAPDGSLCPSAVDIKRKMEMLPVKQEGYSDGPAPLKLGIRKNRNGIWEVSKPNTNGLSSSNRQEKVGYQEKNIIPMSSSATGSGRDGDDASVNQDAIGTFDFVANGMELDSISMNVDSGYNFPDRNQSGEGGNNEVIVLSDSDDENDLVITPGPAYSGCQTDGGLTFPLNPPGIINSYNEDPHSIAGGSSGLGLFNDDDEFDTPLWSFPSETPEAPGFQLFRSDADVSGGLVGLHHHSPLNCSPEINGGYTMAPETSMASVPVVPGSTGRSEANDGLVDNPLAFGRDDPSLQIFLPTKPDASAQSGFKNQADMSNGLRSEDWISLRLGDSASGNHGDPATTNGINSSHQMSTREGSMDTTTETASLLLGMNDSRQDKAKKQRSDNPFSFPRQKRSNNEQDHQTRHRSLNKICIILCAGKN

[5] = target: RACK1B (co-immunoprecipitation with HPY2) (Arabidopsis) (UniProt Q9C4Z6); assay: co-IP; co-immunoprecipitation of RACK1B and HPY2 (Supplementary Fig. 2D); constructs and cells not described in the main text

Molecule: Myc-RACK1B (from UniProt Q9C4Z6 1-326)
binding [1]: binds

Molecule: His-HA-RACK1B (from UniProt Q9C4Z6 1-326)
binding [3]: binds
binding [4]: binds

Results, then the molecule that gave them:

binding [2]: binds
Molecule: His-HA-RAP2.6 (from UniProt Q7G1L2 1-192)

binding [5]: no binding
B1: HPY2 (enzyme, UniProt Q8GYH7 1-249)
chain: MASASSSDGVAGRIQNASLVLVSDNSSTLADIRKAVAMMKNIAVQLEKENQTDKVKDLENSVAELLDLHSDCNHRSTAIQSVANRYQPVEQLTDFKKLLDDEFTKLKATPSSVPQNDHLMRQFREAVWNVHHAGEPMPGDDDEDIVMTSTQCPLLNMTCPLSGKPVTELADPVRSMDCRHVYEKSVILHYIVNNPNANCPVAGCRGKLQNSKVICDAMLKFEIEEMRSLNKQSNRAEVIEDFTEDVDED
